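Compound exposure: 48 hours, 5 concentrations, 96-well plates. The concentration for 50% growth inhibition is given as GI50. At the TGI there is no net growth.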
Test system: NCI-H322M lung
Assay: growth of human tumour cells (NCI), 48 h

First: COc1ccc2c(c1)/C(=C\c1c(-c3cc(OC)ccc3OC)nc3sccn13)C(=O)N2
Second: [N-]=[N+]=NCCCn1c2c(c3ccc([N+](=O)[O-])cc3c1=O)C(=O)c1cc(-c3ccccc3)ccc1-2
The GI50 of the first is lower: 12.9 µM for the first, over 100 µM for the second.

First: O=C(Nc1cc(Cl)cc(Cl)c1)c1cccc(NC2=C(Cl)C(=O)N(Cc3ccccc3)C2=O)c1
Second: CCN(CC)CCN1c2nc3ccccc3cc2Sc2cc3ccccc3nc21
The GI50 of the first is 15-fold higher: 58.3 µM for the first, 3.86 µM for the second.

First: O=C(/C=C/c1ccccn1)c1ccc(OCc2nnc(-c3ccc(Cl)cc3)o2)cc1
Second: N=C(N)c1ccc(-c2ccc(-c3ccc4ccccc4c3)s2)s1
The GI50 of the first is 1.9-fold higher: 3.06 µM for the first, 1.64 µM for the second.

For `COCCc1n(Cc2ccc3ccccc3c2)c2ccccc2[n+]1Cc1ccc2ccccc2c1`, the GI50 was 1.26 µM.

Compared with `COc1ccc2c(c1)/C(=C\c1c(-c3cc(OC)ccc3OC)nc3sccn13)C(=O)N2`, `COc1ccc(O)cc1C(O)c1ccccc1` (configuration not stated) is higher in TGI: 25.8 µM for the first, over 100 µM for the second.

`O=C(Nc1cc(Cl)cc(Cl)c1)c1cccc(NC2=C(Cl)C(=O)N(Cc3ccccc3)C2=O)c1` and `[N-]=[N+]=NCCCn1c2c(c3ccc([N+](=O)[O-])cc3c1=O)C(=O)c1cc(-c3ccccc3)ccc1-2` cannot be ordered by TGI: over 100 µM for the first, over 100 µM for the second.

Going from `O=C(/C=C/c1ccccn1)c1ccc(OCc2nnc(-c3ccc(Cl)cc3)o2)cc1` to `N=C(N)c1ccc(-c2ccc(-c3ccc4ccccc4c3)s2)s1`, the TGI falls from 8.53 µM to 3.73 µM (2.3-fold).

First: COCCc1n(Cc2ccc3ccccc3c2)c2ccccc2[n+]1Cc1ccc2ccccc2c1
Second: CCN(CC)CCN1c2nc3ccccc3cc2Sc2cc3ccccc3nc21
The TGI of the first is 5.8-fold lower: 2.6 µM for the first, 15 µM for the second.

`ClCC[N-]CC[N-]CCCl.ClCC[N-]CC[N-]CCCl.[O-][Cl+3]([O-])([O-])O.[Zn+2]` and `COCN(C)c1nc(N(C)C)nc(N(C)C)n1` cannot be ordered by TGI: over 100 µM for the first, over 100 µM for the second.

Source: PubChem BioAssay (NCI)
